Among the data in patent US8592383B2, “Cycloalkyl-fused tetrahydroquinolines as CRTH2 receptor modulators” (Merck Sharp & Dohme Corp., priority 2011, dated 2013) are Ki values, retold here.

The assay deals with T1, hCRTH2 (Homo sapiens, UniProt Q9Y5Y4).
T1 sequence (Q9Y5Y4 1-395): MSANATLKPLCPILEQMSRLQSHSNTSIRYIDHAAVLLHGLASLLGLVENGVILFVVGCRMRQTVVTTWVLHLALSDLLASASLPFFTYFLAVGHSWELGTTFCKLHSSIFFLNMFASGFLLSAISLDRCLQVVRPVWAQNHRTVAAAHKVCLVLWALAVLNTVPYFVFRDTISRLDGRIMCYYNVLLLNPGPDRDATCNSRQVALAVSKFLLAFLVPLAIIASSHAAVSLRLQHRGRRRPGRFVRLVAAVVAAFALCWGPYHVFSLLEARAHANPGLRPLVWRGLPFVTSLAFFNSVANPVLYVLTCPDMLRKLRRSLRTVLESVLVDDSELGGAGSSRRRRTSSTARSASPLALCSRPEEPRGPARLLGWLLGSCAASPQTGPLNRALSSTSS
Description: biochemical. The settings on record: Ki (nM), Table A; Radioligand Binding Assay A, [3H]PGD2, HEK-hCRTH2 membranes.
Broadly, the Ki is a dissociation constant, usually derived from enzyme kinetics or from competition with a known ligand. Turning to `CN(C(=O)CCC(=O)O)C1c2ccccc2N(C(=O)c2cccc(Cl)c2)C2CCCC12` (racemic) [17AA], the inhibition constant Ki was in the range of 20.1 to 200 nM.

In the case of `O=C(O)CCC(=O)N(CCC(F)(F)F)C1c2ccccc2N(C(=O)c2ccc(OC(F)(F)F)cc2)C2CCCC12` (racemic) [17AB, 4-[[cis,cis-2,3,3a,4,9,9a-hexahydro-4-[4-(trifluoromethoxy)benzoyl]-1H-cyclopenta[b]quinolin-9-yl](3,3,3-trifluoropropyl)amino]-4-oxobutanoic acid], the inhibition constant (Ki) is 20.1 to 200 nM.

`CC1(N(C(=O)CCC(=O)O)C2c3ccccc3N(C(=O)c3ccc(OC(F)(F)F)cc3)C3CCCC32)CC1` (racemic) [17AC, 4-[[cis,cis-2,3,3a,4,9,9a-hexahydro-4-[4-(trifluoromethoxy)benzoyl]-1H-cyclopenta[b]quinolin-9-yl](1-methylcyclopropyl)amino]-4-oxobutanoic acid] displayed an inhibitory constant (Ki) of 5.1 to 20 nM.

`O=C(O)CCC(=O)N(CC1CCC1)C1c2ccccc2N(C(=O)c2ccc(OC(F)(F)F)cc2)C2CCCC12` (racemic) [17AD, 4-[(cyclobutylmethyl)[cis,cis-2,3,3a,4,9,9a-hexahydro-4-[4-(trifluoromethoxy)benzoyl]-1H-cyclopenta[b]quinolin-9-yl]amino]-4-oxobutanoic acid]: the Ki was in the range of 5.1 to 20 nM.

`CCN(C(=O)CCC(=O)O)C1c2ccccc2N(C(=O)C2CC2c2ccccc2)C2CCCC12` (racemic) [17AF, 4-[ethyl[cis,cis-2,3,3a,4,9,9a-hexahydro-4-[(2-phenyl-1-cyclopropyl)carbonyl]-1H-cyclopenta[b]quinolin-9-yl]amino]-4-oxobutanoic acid] registered an inhibition constant Ki of 201 to 7500 nM.

In turn, `O=C(O)CCC(=O)N(C1CC1)C1c2ccccc2N(C(=O)c2cccc(Br)c2)C2CCCC21` (racemic) [17AH, 4-[[cis,cis-4-(3-bromobenzoyl)-2,3,3a,4,9,9a-hexahydro-1H-cyclopenta[b]quinolin-9-yl]cyclopropylamino]-4-oxobutanoic acid] showed an inhibition constant (Ki) of 5.1 to 20 nM.

`O=C(O)CCC(=O)N(C1CC1)C1c2ccccc2N(C(=O)c2ccccc2Br)C2CCCC21` (racemic) [17AJ, 4-[[cis,cis-4-(2-bromobenzoyl)-2,3,3a,4,9,9a-hexahydro-1H-cyclopenta[b]quinolin-9-yl]cyclopropylamino]-4-oxobutanoic acid] yielded an inhibitory constant (Ki) of 20.1 to 200 nM.

For the molecule `O=C(O)CCC(=O)N(C1CC1)C1c2ccccc2N(C(=O)c2cccc(Oc3ccccc3)c2)C2CCCC21` (racemic) [17AK, 4-[cyclopropyl[cis,cis-2,3,3a,4,9,9a-hexahydro-4-(3-phenoxybenzoyl)-1H-cyclopenta[b]quinolin-9-yl]amino]-4-oxo-butanoic acid], the inhibitory constant (Ki) was in the range of 1 to 5 nM.

`COc1cccc(C(=O)N2c3ccccc3C(N(C(=O)CCC(=O)O)C3CC3)C3CCCC32)c1` (racemic) [17AL, 4-[cyclopropyl[cis,cis-2,3,3a,4,9,9a-hexahydro-4-(3-methoxybenzoyl)-1H-cyclopenta[b]quinolin-9-yl]amino]-4-oxobutanoic acid] yielded a Ki of 5.1 to 20 nM.

`COc1ccccc1C(=O)N1c2ccccc2C(N(C(=O)CCC(=O)O)C2CC2)C2CCCC21` (racemic) [17AM, 4-[cyclopropyl[cis,cis-2,3,3a,4,9,9a-hexahydro-4-(2-methoxybenzoyl)-1H-cyclopenta[b]quinolin-9-yl]amino]-4-oxobutanoic acid] displayed a Ki of 20.1 to 200 nM.

In turn, `O=C(O)CCC(=O)N(C1CC1)C1c2ccccc2N(C(=O)c2ccc3ccccc3n2)C2CCCC21` (racemic) [17AN, 4-[cyclopropyl[cis.cis-2,3,3a,4,9,9a-hexahydro-4-(2-quinolinylcarbonyl)-1H-cyclopenta[b]quinolin-9-yl]amino]-4-oxobutanoic acid] yielded a Ki of 20.1 to 200 nM.

In turn, `O=C(O)CCC(=O)N(C1CC1)C1c2ccccc2N(C(=O)c2ccc(OC(F)F)cc2)C2CCCC21` (racemic) [17AP, 4-[cyclopropyl[cis,cis-4-[4-(difluoromethoxy)benzoyl]-2,3,3a,4,9,9a-hexahydro-1H-cyclopenta[b]quinolin-9-yl]amino]-4-oxobutanoic acid] had a Ki of 5.1 to 20 nM.
